Measurements taken from PMC4336329 (PLoS ONE, 2015).
Screen size: about 310,000 compounds; about 14,000 (4.5%) showed an effect of 50% or more. The effect is printed as a negative number. The list shows a part of the results.

The molecules below were run against human ether-à-go-go-related gene (hERG) potassium channel (human, UniProt Q12809) (assay: primary screen, population patch clamp on CHO cells stably expressing hERG).
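Also: peak tail current of the secondary pulse compared with the same well before compound.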

Chain of human ether-à-go-go-related gene (hERG) potassium channel (Q12809 whole entry, looked up): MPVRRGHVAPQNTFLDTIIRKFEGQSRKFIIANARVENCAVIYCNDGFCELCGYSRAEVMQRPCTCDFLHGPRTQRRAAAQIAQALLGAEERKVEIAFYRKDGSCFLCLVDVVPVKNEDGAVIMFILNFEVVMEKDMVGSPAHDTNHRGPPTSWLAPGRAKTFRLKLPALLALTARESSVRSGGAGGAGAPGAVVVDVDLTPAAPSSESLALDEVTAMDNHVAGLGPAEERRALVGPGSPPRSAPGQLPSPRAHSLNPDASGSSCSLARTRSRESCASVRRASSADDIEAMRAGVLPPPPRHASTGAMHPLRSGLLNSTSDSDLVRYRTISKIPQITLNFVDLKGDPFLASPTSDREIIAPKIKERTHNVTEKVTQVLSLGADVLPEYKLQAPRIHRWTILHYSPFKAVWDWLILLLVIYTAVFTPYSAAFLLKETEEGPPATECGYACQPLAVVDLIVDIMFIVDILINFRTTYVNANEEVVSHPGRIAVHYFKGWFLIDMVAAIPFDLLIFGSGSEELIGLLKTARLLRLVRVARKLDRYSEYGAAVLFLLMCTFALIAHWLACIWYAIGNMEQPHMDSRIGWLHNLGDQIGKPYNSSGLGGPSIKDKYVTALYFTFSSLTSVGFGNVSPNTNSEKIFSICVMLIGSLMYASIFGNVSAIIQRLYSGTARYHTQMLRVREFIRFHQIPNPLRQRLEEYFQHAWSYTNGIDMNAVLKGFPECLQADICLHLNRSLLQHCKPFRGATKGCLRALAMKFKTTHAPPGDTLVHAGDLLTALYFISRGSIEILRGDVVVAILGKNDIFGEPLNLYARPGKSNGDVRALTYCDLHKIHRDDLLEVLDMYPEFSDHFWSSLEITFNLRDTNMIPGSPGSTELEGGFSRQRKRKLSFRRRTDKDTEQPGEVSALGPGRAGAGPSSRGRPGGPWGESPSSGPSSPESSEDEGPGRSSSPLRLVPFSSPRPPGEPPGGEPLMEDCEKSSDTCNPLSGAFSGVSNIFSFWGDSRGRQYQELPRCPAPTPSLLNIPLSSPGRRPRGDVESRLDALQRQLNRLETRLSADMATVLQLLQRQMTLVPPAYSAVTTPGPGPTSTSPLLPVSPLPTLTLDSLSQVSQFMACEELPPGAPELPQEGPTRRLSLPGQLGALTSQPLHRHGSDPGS

| Compound | hERG current change (%, negative = inhibition) at 10uM [%] |
| --- | --- |
| O=C(c1ccccc1)C1C(c2ccccc2)C1[N+](=O)[O-] (centres unmarked) | -9.9 |
| COc1cccc(C(=O)COC(=O)CCC(=O)c2ccccc2)c1 | -0.55 |
| CC(=O)c1ccc(S(=O)c2ccccc2)cc1 (centres unmarked) | -3.38 |
| COc1ccc(NC(=O)C(c2ccc(Cl)cc2)C(C)C)cn1 (centres unmarked) | -7.25 |
| Cc1cc(C(=O)NCC(c2cccs2)N2CCOCC2)ccc1[N+](=O)[O-] (centres unmarked) | 4.02 |
| CC(C)(C)c1cc2nc3c(c(=O)n2[nH]1)CN(Cc1ccccc1)C3=O | 6.19 |
| CCOC(=O)C1CCCN(C(=O)c2cn(-c3ccccc3)nc2-c2cccnc2)C1 (centres unmarked) | -5.07 |
| CCc1nc2ccccc2c(=O)n1NC(=O)c1c(O)c2ccccc2n(CC)c1=O | 20.8 |
| COc1cc(N2CCOCC2)ccc1/C=C1\C(=O)NC(=O)N(Cc2ccc3c(c2)OCO3)C1=O | 16.5 |
| CCOC(=O)CCCC(=O)N1CCOCCOCCOCC1 | -1.38 |
| CCc1ccc(CCC(=O)Nc2nccs2)o1 | -1.14 |
| O=c1c(=Nc2ccccc2O)c(=O)c2ccccc12 | 12.8 |
| CN1C(=O)/C(=C/c2ccc(C(=O)Nc3ccc(O)cc3C(=O)O)cc2)SC1=S | 15.1 |
| COc1ccc(-c2ccc(CCC(=O)O)n2C(C)C)cc1 | -4.43 |
| O=C1CCN(Cc2cccnc2)CCN1[C@H](CO)Cc1ccccc1 | 1.21 |
| COCCNC(=O)Cn1nc(-c2ccc(Cl)cc2)c2ccccc2c1=O | 8.83 |
| CC(CN1CCCCC1)OC(=O)c1ccco1.Cl (centres unmarked) | 16 |
| C#CC1(NC(=O)NCCCC)CCCCC1 | 14.3 |
| NS(=O)(=O)c1cccc(NC(=O)c2cc3ccccc3o2)c1 | 9.45 |
| COc1ccc(-c2nnc3sc(COc4ccccc4)nn23)cc1 | -9.16 |
| C=C1C(=O)[C@@]23[C@H](O)C[C@@H]4C(C)(C)CC[C@H](O)[C@]4(C)[C@@H]2C[C@H](O)[C@@H]1[C@H]3O | -0.141 |
| CCCCn1c(N)c(N(C)C(=O)c2cn(-c3ccccc3)nc2-c2ccccc2)c(=O)[nH]c1=O | -1.58 |

| Compound | hERG current change (%, negative = inhibition) at 10uM [%] |
| --- | --- |
| CCN(CC)CCCNC(=O)c1csc(Nc2cccc3ccccc23)n1 | -71.6 |
| CC(C)c1nc2cc(C(=O)NC(c3cccnc3)C(F)(F)F)ccc2o1 (centres unmarked) | -2.83 |
| Oc1ccc(/C=N/Nc2ccc(Cl)nn2)c(O)c1O | 21.6 |
| COc1cc([N+](=O)[O-])ccc1NC(=O)C[n+]1cccc(C)c1.[Cl-] | -5.3 |
| COc1ccc(-n2ncc(C(=O)N3CCN(c4ccc(F)cc4)CC3)c2C)cc1 | -22.6 |
| Cc1ccc(S(=O)OCC(=O)Nc2cc(Cl)ccc2N2CCOCC2)cc1 (centres unmarked) | 3 |
| CCOC(=O)COc1cc2c(C(=O)OCC)c(C)oc2cc1Br | 21.1 |
| Cc1cc(-c2nnc(SCC(=O)Nc3ccccc3C(F)(F)F)o2)c(C)n1-c1ccccc1 | 3.66 |
| Cc1cc(C(=O)N=Nc2c(O)n(C)c3ccccc23)c(C)o1 | 7.83 |
| Cc1ccc(-c2n[nH]c(=O)c3ccccc23)cc1S(=O)(=O)NC(C)(C)C | 13.6 |
| CCc1ccccc1NC1=NCC(=O)N1Cc1ccccc1 | 4.53 |
| CC1CCc2c(C(=O)Nc3nccs3)csc2C1 (centres unmarked) | 14.3 |
| CC(=O)C1=C(O)C(=O)N(c2nnn(C)n2)C1c1cccs1 (centres unmarked) | 8.42 |
| COCCCNc1nc2nonc2nc1N1CCC(C(C)N2CCOCC2)CC1 (centres unmarked) | 23.5 |
| Nc1cc(-c2nn[nH]n2)ccc1F | 11.6 |
| CC(C)=C1SC(N2CCN(c3ccc(C)c(Cl)c3)CC2)=NC1=O | 3.91 |
| CCOC(=O)N1CCN(C(=O)c2ccc3nc(N4CCC(C)CC4)sc3c2)CC1 | -12.2 |
| O=C(NNC(=O)c1ccccc1C(F)(F)F)c1csc(N2CCOCC2)n1 | 20.7 |
| CS(=O)(=O)NCc1nnc(SCc2ccc(C(F)(F)F)cc2)o1 | -22.7 |
| COc1cccc(C(=O)OC2CCN(C)CC2)c1.Cl | 4.78 |
| Cc1ccc(NC(=O)C(C)N2CCCC2)cc1Cl.Cl (centres unmarked) | -27.7 |
| Cc1ccc(C)c(S(=O)(=O)N2CCN(C(=O)c3ccc4ccccc4n3)CC2)c1 | -26 |
